Assay results taken from article PMC12136788.
Some of the results follow.

T1: UNK ZnF1-3 (human, UniProt Q9C0B0 31-174)
T1 sequence: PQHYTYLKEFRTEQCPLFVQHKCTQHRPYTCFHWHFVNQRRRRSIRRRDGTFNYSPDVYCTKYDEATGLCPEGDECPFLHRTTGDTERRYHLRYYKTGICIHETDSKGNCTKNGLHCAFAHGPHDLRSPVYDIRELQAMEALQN

B1: chr13:60863204:60863205:+_ENSMUSG00000021559_ENSMUST00000077453|mus_hu|motif|central (ssRNA)
RNA: GGGAGUUCUACAGUCCGACGAUCAGUCCAAACAGACCCUGCCCAAGCCAGAGGCUGCCCUCACCGGGAUACAACAGAGCGGAUGGAAUUGUAAGAGGUGCCGCUGUUGCAGCUCGAGGCAUAGGCCUCCUGGCCAUUGCCAUCCAACAGAGGAUUGAGCAUCA
B2: chr9:95013113:95013114:-_ENSG00000196305_ENST00000443024|hu_hu|hu_hu_hu_mus_False|8_88 (ssRNA)
RNA: GGGAGUUCUACAGUCCGACGAUCCUCAGUCAGAAAGGGCGUGUAAGGAGCCAUAAGUCUGCACAGAGAAAGCAGGACACUGAACAGUGUCUCCAGAGCCAUGACACAGUCUUCCACCCCACUCUCACCCUUUAAUCUCCUCCUCAACAGAGGAUUGAGCAUCA
B3: chr14:63888807:63888808:-_ENSG00000154001_ENST00000337537|hu_mus|motif|central (ssRNA)
RNA: GGGAGUUCUACAGUCCGACGAUCUUCAUUGCUGUCACUAGGAGGGAGAGUUCUGAAUAUAUUGCAAGAUACCAUUCGGACGGCUUCAGGGUAAGUCUGCUCUGUCAGACAGCCUCUGCUUAUUGUAAUGUAGUCCACCAGUUCCAACAGAGGAUUGAGCAUCA
B4: chr14:89307221:89307222:+_ENSG00000165533_ENST00000346301|hu_mus|FALSE|FALSE (ssRNA)
RNA: GGGAGUUCUACAGUCCGACGAUCUCCUGUUUGGUUAGUGCCAGGGAGCUUCAAAGAUGUGCCAGGGCGUGGGACCUGAGCAAUAGCAUUUUCAUCCAGGAUCAUUUCAGCAAUUCCUUCCUGGUCCACAUCAAUUUCAUCUAUCAACAGAGGAUUGAGCAUCA
B5: 41771383_41772518_1973_3pUTR_ENSG00000137815_ENST00000389629|human|control|control (ssRNA)
RNA: GGGAGUUCUACAGUCCGACGAUCCUGGGAACUUGUAAGUCAAUCUUCACAUCAAAAUCGUGUACUUUGAACAGAUCUUCUGAGAGGUCACUGGCUGACUUAGAAUUCAAAUCUUUAUCUUUGCCUUGACCCUUGCUCAUUUCCCAACAGAGGAUUGAGCAUCA
B6: chr7:149068622:149068623:-_ENSMUSG00000025139_ENSMUST00000001950|mus_hu|mus_mus_mus_hu_False|38_78 (ssRNA)
RNA: GGGAGUUCUACAGUCCGACGAUCGUGAGGCCUCUGAGUGUGGCUUGUGGUCUGUCCUGUCUGCAGUUUGUUAAUAUCACGGAACAUACCAUCUAGAGAGGUUCUGCCCCGCCUGACACCUUCAUUCCCAAUGGAGAAGAAAUCCAACAGAGGAUUGAGCAUCA
B7: chr10:1038518:1038519:+_ENSG00000107937_ENST00000545048|hu_mus|FALSE|FALSE (ssRNA)
RNA: GGGAGUUCUACAGUCCGACGAUCCAGUCUGUCAUGGUAAUUCUGUUGAGUAAAUUUGACUUUUCUCAUAUAAAAAUGUCGAAUCCGAUGAAUUUGAUAAUGUUUAUGAAUAACCGUUGGAGUCUUUCGUUGAGUCUUGGAUAACAACAGAGGAUUGAGCAUCA
B8: chrX:140365796:140365797:-_ENSMUSG00000031285_ENSMUST00000033642|mus_mus|mus_mus_mus_hu_False|78_78 (ssRNA)
RNA: GGGAGUUCUACAGUCCGACGAUCCUUCUCAUUACUCAGUGCCUGCAAGGUUCUGGUUCUGUAGAAGCUACAGUGGGCGCUGUGAGUGGGGCUAGGCAACCCAUUCAUCCGGGAGCCUCGCAUGUUCCUGGAUGUCUUAUCUCUCAACAGAGGAUUGAGCAUCA
B9: 60895986_60898943_215_3pUTR_ENSMUSG00000021987_ENSMUST00000022563|mouse|control|control (ssRNA)
RNA: GGGAGUUCUACAGUCCGACGAUCAGAGGCAAUAUGGUGGUGUAGUAUCCAGGUUUCUUUUUGCUGAGCGUCAAUAAAUAAUAGGUGUGUGGCCGUAAGAUACAGUGUUCCUGUCAGUGACUUGUUGUUGGUACUAAACCGGUCCAACAGAGGAUUGAGCAUCA
B10: chr7:108212191:108212192:+_ENSG00000128590_ENST00000249356|hu_hu|motif|central (ssRNA)
RNA: GGGAGUUCUACAGUCCGACGAUCGUUAUCAUUAAAAUGCAGAUUGCAAAGAUGAAAAUUGACUGGGGAGUAGCCAUUUCGGAUAUCCUGCACCCUCCGACUACUGCUGCUCCUCCACAGAGCUGAGGCGCUGGCGACCCUGACCAACAGAGGAUUGAGCAUCA
B11: chr10:80642667:80642668:+_ENSMUSG00000034994_ENSMUST00000047864|mus_hu|FALSE|FALSE (ssRNA)
RNA: GGGAGUUCUACAGUCCGACGAUCGACUCGUCCAAAGGCGUAGAACCGACCUUUGUCGGAGGUUGGCACCAUUUUGGAAAUAUACAUCAUAAGAGGGCCUUUGGGGUCACAGCUUUUAAUGCCCAUGGCAGCCUCGUCGUCCGGCAACAGAGGAUUGAGCAUCA
B12: chr7:65705844:65705845:+_ENSG00000169902_ENST00000304842|hu_mus|hu_hu_hu_mus_False|8_8 (ssRNA)
RNA: GGGAGUUCUACAGUCCGACGAUCAAACGGAUCUUUGUUACAUAAAUAAGGUGCCGGCUCCCCAUGUUUAACAAUGACCUCCAGAAGGAAGGCUUGCAUGGCAGAAUCUAGCACUUCAUCUGUGACACCAGCCUCAUCCAAGCGCAACAGAGGAUUGAGCAUCA
B13: chr6:38652254:38652255:-_ENSG00000124767_ENST00000373365|hu_hu|hu_hu_hu_mus_False|48_88 (ssRNA)
RNA: GGGAGUUCUACAGUCCGACGAUCCGAGAACUUCAUAGCAGGGAAGUCACAUUUUUGCAGGAGGGUCAGUCCAAGAACCCUCGUAUAAAAAUCCAGUGACUUCUUAGGAUCCUUAAUUCUUAGCAUCGUUUGCUGCAGUAGAAACAACAGAGGAUUGAGCAUCA
B14: chr4:76733432:76733433:+_ENSG00000138768_ENST00000264904|hu_hu|motif|central (ssRNA)
RNA: GGGAGUUCUACAGUCCGACGAUCGCCAAGAGCACCAAGAGAUCAUCUUGUUCUUUUUUAGAAUCUGUAAUUUCCAACUCGGGUUUGUCUUUCUCAGUUUGUAAAAUGGCAAUGGUACUAUUAGAUGAAUCCAGCUGCUCUUUACAACAGAGGAUUGAGCAUCA

The binders below were run against T1, UNK ZnF1-3 (assay: nsRBNS (natural sequence RNA bind-n-seq); RBNS binding buffer (assumed for nsRBNS): 25 mM Tris pH 7.5, 150 mM KCl, 3 mM MgCl2, 0.01% Triton X-100, 500 ug/ml BSA, 20 U/ml SUPERase-In, 4 C; UNK is unkempt and MSI1 is Musashi-1; names of the RNAs are library labels; protein concentration not given here; high values mean tight binding).
Work on B1 yielded a binding signal of 0.784 enrichment R. Binder B2 has a binding signal of 1.34 enrichment R. In the case of B3, the binding signal is reported as 1.06 enrichment R. In the case of B4, the binding signal is reported as 0.886 enrichment R. Work on B5 yielded a binding signal of 0.655 enrichment R. For B6, the binding signal was 0.806 enrichment R. Binder B7 has a binding signal of 0.535 enrichment R. Work on B8 yielded a binding signal of 0.603 enrichment R. With B9 the binding signal was 1.12 enrichment R. Binder B10 has a binding signal of 0.989 enrichment R. Binder B11 has a binding signal of 1.92 enrichment R. B12 showed a binding signal of 0.623 enrichment R. In the case of B13, the binding signal is reported as 0.691 enrichment R. In the case of B14, the binding signal is reported as 1.17 enrichment R.
